In the GPR68 mutational scans of Howard et al. (2025):
Scores whose standard error is large were omitted. The source holds two more conditions with little spread; they are left out. Names with del lack the residues named; names with ins carry added residues between the positions named. For part of these data: The concentration of ogerin is not given here.

B1: GPR68, Q15743 (parent)
chain: MGNITADNSSMSCTIDHTIHQTLAPVVYVTVLVVGFPANCLSLYFGYLQIKARNELGVYLCNLTVADLFYICSLPFWLQYVLQHDNWSHGDLSCQVCGILLYENIYISVGFLCCISVDRYLAVAHPFRFHQFRTLKAAVGVSVVIWAKELLTSIYFLMHEEVIEDENQHRVCFEHYPIQAWQRAINYYRFLVGFLFPICLLLASYQGILRAVRRSHGTQKSRKDQIQRLVLSTVVIFLACFLPYHVLLLVRSVWEASCDFAKGVFNAYHFSLLLTSFNCVADPVLYCFVSETTHRDLARLRGACLAFLTCSRTGRAREAYPLGAPEASGKSGAQGEEPELLTKLHPAFQTPNSPGSGGFPTGRLA

Experiments:
[1] = variants of: B1; experiment: cAMP reporter score (Enrich2 score, wild type = 0); higher = more signal; HEK293T, FACS bins
[2] = variants of: B1; experiment: surface expression score (Enrich2 score, wild type = 0); higher = more signal; HEK293T, FACS bins

| Variant | cAMP reporter score ([1]; pH 5.5) | cAMP reporter score ([1]; pH 6) | cAMP reporter score ([1]; pH 6, modulator: ogerin) | cAMP reporter score ([1]; pH 6.5, modulator: ogerin) | surface expression score [2] |
| --- | --- | --- | --- | --- | --- |
| C40L | 2.32 | 3.06 | 3.06 | 3.76 | 4.05 |
| C40N | -0.427 |  | -0.669 | -3.03 |  |
| C40S | -1.22 | -0.81 | -1.31 |  |  |
| C40E | -1.73 |  | -1.12 | -0.146 | -1.66 |
| C40P | -0.887 | -1.61 | -0.759 | -0.757 | -2.91 |
| C40F | 0.065 | -0.071 | -0.331 | -0.368 | -1.35 |
| C40Q | -1.17 | -1.27 | -1.51 | -1.24 | -2.41 |
| C40D | -2.39 | -0.832 | -0.693 | -0.627 |  |
| C40V | 1.01 | 0.17 | 0.882 | 0.121 | 1.39 |
| C40Y | -1.21 | -0.378 | -1.5 | -0.893 | -2.27 |
| C40A | 0.297 | -0.552 | 0.32 | -0.77 | -0.958 |
| C40G | -0.709 |  | -0.962 | -1.34 | -0.291 |
| C40K | -1.54 | -1.66 |  | -0.878 | -2.59 |
| C40W | -1.56 | -0.906 | -1.29 | -0.311 | -1.74 |
| C40H | -1.87 | -0.768 | -0.91 | -0.988 | -0.974 |
| C40I | 0.866 | 0.888 | 1.13 | 1.34 | 1.52 |
| C40T | -0.522 |  | -1.85 | -1.07 | -2.04 |
| C40M | 0.834 | 1.45 | 0.795 | 0.584 | 1.44 |
| A38_N39del | -1.61 | -0.734 | -1.38 | -1.25 | -2.32 |
| V31_L32insGS | -1.02 | -0.888 | -1.68 | -1.07 | -2.3 |
| F45_G46insGSG | -1.31 | -1.29 | -1.68 | -0.889 | -2.02 |

| Variant | cAMP reporter score ([1]; pH 5.5) | cAMP reporter score ([1]; pH 6) | cAMP reporter score ([1]; pH 6, modulator: ogerin) | cAMP reporter score ([1]; pH 6.5, modulator: ogerin) | surface expression score [2] |
| --- | --- | --- | --- | --- | --- |
| G35_F36insGS | -1.23 | -0.93 | -0.382 | -0.44 | -2.51 |
| V29_T30insGS | -1.54 | -1.54 |  |  | -2.04 |
| V33_V34del | -0.9 | -0.61 | -1.28 | -1.76 | -2.16 |
| L41E | -1.57 | -0.18 | -1.89 | -1.48 | -3.06 |
| L41A | 0.731 | 0.527 | 0.056 | -0.408 |  |
| L41D | -0.43 | -1.11 | -0.696 | -0.19 |  |
| L41V | -0.71 | -0.232 | -0.474 | -0.789 | -0.613 |
| L41Q | -1.51 | -1.88 | -2.27 | -1.68 | -1.98 |
| L41W | -1.66 | -0.209 | -0.571 | -1.1 | -0.674 |
| L41F | 0.045 |  | 0.236 | -0.431 | -0.334 |
| L41Y | -0.673 | -0.338 | -0.295 | -0.783 | -1.32 |
| L41T | -1.26 | -0.881 | -1.22 | -1.46 | -2.25 |
| L41I | 0.332 | 0.113 | 0.196 | -0.788 | 0.195 |
| L41S | -1.29 | -0.921 | -1.73 | -0.949 | -2.82 |
| L41N | -1.5 | -1.63 | -1.86 | -1.03 | -2.39 |
| L41G | -0.931 | -0.345 |  | -0.588 | -1.89 |
| L41M | -0.45 | -0.628 | -0.513 | -0.517 | -1.16 |
| L41K | -1.51 | -1.37 |  | -0.589 | -1.66 |
| L41P | -0.225 | 0.525 | 0 | -0.057 | -2.41 |
| L41R | -1.48 | -1.23 | -1.71 | -0.73 | -1.88 |
| L41C | -1.05 | -0.714 | -0.888 | -0.457 | -1.38 |

| Variant | cAMP reporter score ([1]; pH 5.5) | cAMP reporter score ([1]; pH 6) | cAMP reporter score ([1]; pH 6, modulator: ogerin) | cAMP reporter score ([1]; pH 6.5, modulator: ogerin) | surface expression score [2] |
| --- | --- | --- | --- | --- | --- |
| F45_G46del | -1.04 | -0.689 | -1.08 | -1.05 | -2.04 |
| A38_N39insG | -0.427 | -0.92 | -1.71 | -0.981 | -2.2 |
| V33_G35del | -1.56 | -1.09 | -1.54 | -1.49 | -2.54 |
| C40_L41insGSG | -1.01 | -1.51 | -1.59 | -1.4 | -2.46 |
| S42del | -1.31 | -0.541 | -0.575 | -1.29 | -2.19 |
| Y44_F45insGS | -1.6 | -1.43 | -2.54 | -1.05 | -2.27 |
| P37_A38insGSG | -2.75 |  | -1.78 | -1.19 | -1.83 |
| L41del | -1.65 | -0.953 | -1.2 | -0.69 | -2.29 |
| S42H | -0.822 | -1.3 | -0.837 | -1.03 | -1.87 |
| S42L | 0.317 | -0.104 |  | -0.087 | 1.18 |
| S42M | -0.135 | 1.14 | -0.019 | 0.256 | -0.099 |
| S42E | -0.651 | -0.139 | -0.667 | -0.44 | -0.934 |
| S42A | 1.11 | 1.89 | 1.27 | 2.34 | 1.89 |
| S42P | -0.849 | -0.596 | -0.843 | 0.007 | -2.46 |
| S42W | 0.475 | -0.316 | -0.729 | -0.77 | -2.53 |
| S42K | -1.37 | -0.57 | -1.42 | -0.871 | -2.11 |
| S42N | -0.171 | -0.867 | -0.096 | -0.849 | -0.699 |
| S42R | -1 | -0.389 | -1.42 | -1.31 | -1.34 |
| S42I | -1.1 | -0.225 | -0.887 | -0.812 | -0.297 |
| S42F | 0.616 | 0.231 | 0.823 | 0.276 | 0.243 |
| S42T | 0.838 | 0.817 | 1.07 | 0.704 | 0.598 |
